# Laboratory results as given in the supplement of paper PMC12217912.
# This is one part of the list. Sequences were assembled here from the parent chain. Inactive controls read about 0.05.
# B1: TEV protease; numbered along this chain (parent)
# chain: MGESLFKGPRDYNPISSSICHLTNESDGHTTSLYGIGFGPFIITNKHLFRRNNGTLVVQSLHGVFKVKDTTTLQQHLVDGRDMIIIRMPKDFPPFPQKLKFREPQREERICLVTTNFQTKSMSSMVSDTSCTFPSGDGIFWKHWIQTKDGQCGSPLVSTRDGFIVGIHSASNFTNTNNYFTSVPKNFMELLTNQEAQQWVSGWRLNADSVLWGGHKVFMVKPEEPFQPVKEATQL
# Variants of: B1
# Experiment: raw area under fraction-flipped curve 0-4 h after induction (AUC4h, not background-subtracted), DNA-recorder readout of cleavage of the substrate (dimensionless); higher = more cleavage of the substrate by the protease variant
# Details: temperature: 34 °C; time window: 0-4 h after rhamnose induction
# Protocol: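 In vivo DNA recorder in E. coli TOP10(DE3) ΔrhaA at 34 °C. Each TEVp single-site mutant (parent TEVp 0) is paired with a single-site variant of the 7-mer TEVs (canonical ENLYFQ|S). The substrate sits between flexible linkers in a Bxb1-sfGFP-TEVs-SsrA fusion, so cleavage stabilises Bxb1 and speeds flipping of a recombination array, read by NGS. The value is the raw area under the fraction-flipped curve over 0-4 h after rhamnose induction (AUC4h), with ≥20 reads per time point. It is not background-subtracted; inactive controls average about 0.047.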
# 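Note: Bxb1 expression induced with 0.2% (w/v) L-rhamnose at OD600 near 0.5, cultures sampled hourly, flipped fraction per protease–substrate barcode pair counted by paired-end Illumina sequencing.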
Variant,area with substrate ENAYFQS,area with substrate ENCYFQS,area with substrate ENDYFQS,area with substrate ENEYFQS,area with substrate ENFYFQS,area with substrate ENNYFQS,area with substrate ENQYFQS,area with substrate ENSYFQS,area with substrate ENGYFQS,area with substrate ENHYFQS,area with substrate ENIYFQS,area with substrate ENKYFQS,area with substrate ENMYFQS,area with substrate ENPYFQS,area with substrate ENRYFQS,area with substrate ENTYFQS,area with substrate ENVYFQS,area with substrate ENWYFQS,area with substrate ENYYFQS
T129V,0.0499,0.0703,0.0669,0.0637,0.0722,0.0606,0.062,0.0654,,,,,,,,,,,
T181P,0.0714,0.0656,,0.0745,,,0.0647,0.0962,0.0456,0.0599,0.0654,0.0563,0.0558,0.041,0.0554,0.0551,0.0691,0.0554,0.0659
V165A,0.0626,0.0627,0.0564,0.0606,0.0421,0.0566,0.0451,0.0565,,,,,,0.0433,0.0623,0.0509,0.0486,,0.049
S127M,0.0684,0.0603,0.0625,0.0608,,0.0568,0.062,0.0805,0.0591,,0.119,0.076,0.0798,0.0688,0.0652,0.0668,,0.056,0.0607
N172E,0.0582,,0.0616,,,0.0514,,0.0664,0.0625,,0.0549,,,,0.0413,0.0647,,0.0669,0.0593
G166I,0.0588,0.0467,,0.0458,0.0554,0.0613,0.0442,0.0516,0.0691,,,0.0569,0.0524,0.0498,0.0505,,0.0699,0.0389,0.0405
R160P,0.0561,0.0613,0.0529,0.0583,0.0591,0.0461,0.0562,0.055,0.0594,0.0557,0.0763,0.0521,0.0631,0.0541,,0.0767,0.0656,,0.0552
I167Y,0.062,0.0844,,0.051,0.0574,0.0639,,0.0578,0.047,0.0589,0.0663,,,0.0585,0.0566,,0.0797,0.0449,0.0413
I167S,0.0351,0.0525,0.0615,0.0522,0.0599,0.0605,0.0604,0.0606,0.0441,0.0717,,0.0727,,0.0494,0.0472,,0.0534,0,0.0519
I164M,0.0553,0.063,0.0598,0.0635,0.0567,0.0605,0.0587,0.0602,0.0601,0.0636,,0.0461,0.054,0.049,0.0495,0.0612,0.0633,0.0584,0.0637
I139W,0.0555,0.074,0.0598,0.0535,0.0605,,0.0689,0.0621,0.0708,,,,0.0691,,0.0609,0.0629,0.0732,,0.0521
I139P,0.0579,0.0622,0.068,,,,0.0548,,,,,,,,,0.0546,0.0594,,
D137Y,0.0675,,0.0603,0.067,,0.0496,0.0174,0.0557,0.0529,0.0636,,0.0572,0.0528,0.0623,0.122,,0.0736,0.0563,0.0538
